{"source": "PubChem BioAssay AID1671193", "about": "(National Center for Advancing Translational Sciences (NCATS), 2021)", "note": "The whole screen tested about 150,000 compounds, of which about 180 (0.12%) were called active. The shares of active, inactive and inconclusive entries below differ from those in the screen. Calls come from the whole dose curve; as a rule, active = well fitted cell-killing curve with a large enough effect; inconclusive = small, poorly fitted or top-dose-only effect, or effect the other way; inactive = flat fitted curve, though single readings scatter. A potency beside an inconclusive call is a rough fit, not a confirmed value. Potency is the fitted concentration of half-maximal effect; tags give direction and shape of the fitted curve."}
{"assay": "GF-AFC viability counterscreen for inhibitors of alpha-synuclein gene (SNCA) expression; note: nearly all actives have a fitted effect of over 30% in size;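 for activity change, negative = cytotoxicity: 0% = DMSO-treated cells and -100% = medium-only wells without cells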", "details": "HEK-293-SNCA-luc viability, GF-AFC fluorescence, 24 h; activity change, negative = cytotoxicity: at 57.1 µM (top of the series) unless noted", "in_short": "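HEK-293-SNCA-luc cells (1500/well) plated 24 h, then exposed 24 h to a dilution series; GF-AFC added 30 min at 37C, fluorescence 405/540 nm; normalised to medium-only and DMSO wells, Hill fit.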"}
{"compound": "O=C([C@@H]1C[C@H](Oc2cccnc2)CN1C(=O)CC1CCCCC1)N1CCOCC1", "activity change, negative = cytotoxicity": "inactive: -11%"}
{"compound": "Cc1ccccc1C(=O)N1CCC(C(NC(=O)c2cccs2)C(=O)N2CCCCC2)CC1", "note": "(stereo not given)", "Potency": "inconclusive: 0.631 µM [cytotoxic, full curve, poor fit]"}
{"compound": "O=C(NCCc1ccc(F)cc1)C1CCCN1Cc1ccc(-c2cncnc2)cc1", "note": "(stereo not given)", "activity change, negative = cytotoxicity": "inactive: -10.5%"}
{"compound": "COCCn1c(=O)c(-c2cccc(C#N)c2)nc2cnc(N3CCN(C)CC3)nc21", "Potency": "inconclusive: 3.55 µM [rising, full curve, poor fit]"}
{"compound": "CCCn1c(=N)c(C(=O)NC2CCCC2)cc2c(=O)n3cccc(C)c3nc21", "Potency": "inconclusive: 4.47 µM [rising, full curve, poor fit]"}
{"compound": "CN1CCN(C(=O)c2ccc3nnc(-c4ccc(OC(F)(F)F)cc4)n3c2)CC1", "activity change, negative = cytotoxicity": "inactive: -3.04%"}
{"compound": "CCOC(=O)c1ccc(NC(=O)CN2c3ccccc3S(=O)(=O)c3ccccc32)cc1", "Potency": "inconclusive: 10 µM [cytotoxic, partial curve]"}
{"compound": "Cc1ccsc1C(=O)Nc1ccc2c(N3CCCCC3)ncnc2c1", "Potency": "inconclusive: 39.8 µM [cytotoxic, single point]"}
{"compound": "CCn1c(=O)c2cc(C(=O)N(CC(C)C)CC(C)C)sc2c2ccccc21", "activity change, negative = cytotoxicity": "inactive: 15.9%"}
{"compound": "Cc1cc(F)ccc1OC1CNC1", "activity change, negative = cytotoxicity": "inactive: 0.79% [at 87.6 µM]"}
{"compound": "CC(=O)NCCNc1nc(-c2ccc(N(C)C)cc2)nc2ccccc12", "Potency": "inconclusive: 1.78 µM [cytotoxic, full curve, poor fit]"}
{"compound": "CCOCC1(C)COc2ccc(C(=O)NCc3cc(OC)cc(OC)c3)cc2N1", "note": "(stereo not given)", "activity change, negative = cytotoxicity": "inactive: 3.49% [at 87.6 µM]"}
{"compound": "Cc1ccccc1-c1nc(-n2ccnc2)c2ccccc2n1", "Potency": "inconclusive: 17.8 µM [cytotoxic, partial curve, poor fit]"}
{"compound": "c1nc2nc(Nc3ccc(N4CCOCC4)cc3)nc(NC3CCCCC3)c2[nH]1", "Potency": "inconclusive: 19.2 µM [cytotoxic, partial curve, poor fit]"}
{"compound": "CN(C)c1ccc(-c2ccnc(N[C@H]3CO[C@H]4[C@@H]3OC[C@H]4OC(=O)Nc3cccc(C#N)c3)n2)cc1", "activity change, negative = cytotoxicity": "inactive: -22.3%"}
{"compound": "CN(CC1CCOC1)S(=O)(=O)c1ccc2c(c1)CCCC2", "note": "(stereo not given)", "Potency": "inconclusive: 39.8 µM [cytotoxic, single point]"}
{"compound": "CCNC(=O)Cc1ccc(N(Cc2ccc(F)cc2)C(=O)c2ccco2)cc1", "activity change, negative = cytotoxicity": "inactive: 3.02%"}
{"compound": "O=C(c1ccoc1)N1CCC(c2nc(-c3ccccc3)no2)C1", "note": "(stereo not given)", "Potency": "inconclusive: 3.55 µM [rising, partial curve, poor fit]"}
{"compound": "COCCOc1ccc(C(=O)N[C@@H]2CN(C(=O)Nc3ccccc3C(=O)OC)CCC[C@H]2O)cc1", "activity change, negative = cytotoxicity": "inactive: -4.86%"}
{"compound": "CCCc1noc(-c2cn(C3CCN(C(=O)c4cc(F)cc(F)c4)CC3)nn2)n1", "Potency": "inconclusive: 2 µM [rising, full curve, poor fit]"}
